From patent US20240247069A1, “FGFR3 BINDING MOLECULES AND METHODS OF USE THEREOF” (Regeneron Pharmaceuticals, Inc., priority 2023, published 2024)

How the values were obtained:
[1] = tested on: LU-0813 tumors (FGFR3 S249C); assay: In vivo tumor growth inhibition, LU-0813 PDX model; parameters: species or system mouse; details: mAb063 10 mg/kg, BiP063N2 13.3 mg/kg, twice per week
Description: Next, the ability of BiP063N2 to inhibit the growth of a patient-derived lung squamous cell carcinoma model LU-0813 was assessed.

[2] = molecular target: T1, FGFR3 S249C (Homo sapiens, UniProt P22607, S249C); assay: Western blot of FGFR3 receptor dimerization in UMUC14 cells; assay type: cell-based; details: 33 nM, 3 hours, non-reducing SDS-PAGE
T1 construct: UMUC14 cells, which endogenously express the FGFR3 S249C mutation; endogenous in cells; host or cells: UMUC14 (Sigma-Aldrich)
T1 sequence (P22607 23-808 isoform P22607-2 S249C limits assumed): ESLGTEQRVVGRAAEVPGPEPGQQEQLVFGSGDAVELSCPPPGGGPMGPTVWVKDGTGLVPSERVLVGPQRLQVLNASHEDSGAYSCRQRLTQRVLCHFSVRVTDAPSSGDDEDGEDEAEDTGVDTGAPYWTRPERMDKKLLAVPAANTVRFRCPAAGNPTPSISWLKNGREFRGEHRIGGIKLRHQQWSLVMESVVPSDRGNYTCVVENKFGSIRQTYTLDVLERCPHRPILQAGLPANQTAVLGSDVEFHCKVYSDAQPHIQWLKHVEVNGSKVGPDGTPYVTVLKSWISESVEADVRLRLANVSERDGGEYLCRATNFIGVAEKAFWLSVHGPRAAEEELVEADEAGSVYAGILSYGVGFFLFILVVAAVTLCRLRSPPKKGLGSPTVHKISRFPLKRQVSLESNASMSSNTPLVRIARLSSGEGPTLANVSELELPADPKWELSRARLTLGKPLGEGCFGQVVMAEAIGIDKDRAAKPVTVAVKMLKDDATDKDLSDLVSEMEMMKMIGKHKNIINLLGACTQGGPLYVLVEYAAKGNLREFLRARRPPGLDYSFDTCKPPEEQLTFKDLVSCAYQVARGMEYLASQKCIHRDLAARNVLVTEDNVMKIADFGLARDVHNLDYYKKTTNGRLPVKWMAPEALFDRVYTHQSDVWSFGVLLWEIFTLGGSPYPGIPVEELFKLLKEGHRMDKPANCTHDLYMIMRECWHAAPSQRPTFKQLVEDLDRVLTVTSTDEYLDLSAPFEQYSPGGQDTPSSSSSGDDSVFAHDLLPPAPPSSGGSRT
Description: For receptor dimerization assessments, UMUC14 bladder cancer cells or BaF3 cells were seeded in 6 well tissue culture plate (Corning) in complete medium (MEM medium with 10% FBS, 1% non-essential amino acids, Glutamine, Pen/Strep) and cultured overnight at 37° C. with 5% CO2. Cells were then serum starved overnight in starvation medium (MEM medium with 0.5% FBS, Pen/Strep) followed by antibody treatment for 3 hours at indicated concentrations. Equal amounts of cell lysates were analyzed by either reducing or non-reducing SDS-PAGE. Membranes were blotted with anti-FGFR3 primary antibody (Santa Cruz) and developed with SuperSignal West Pico substrate (Pierce) and luminescence images were captured with a C300 imager (Azure Biosystems).
To gain insight into the mechanisms of antiproliferative activity of BiP063N2, effects of antibodies on FGFR3 receptor dimerization, degradation, and downstream signaling were evaluated by western blot as described in Section 8.1.5. UMUC14 cells, which endogenously express the FGFR3 S249C mutation, were treated with indicated antibodies at 33 nM for 3 hours. After treatment, FGFR3 monomers and disulfide-linked dimers were separated via a non-reducing SDS-polyacrylamide gel (FIG. 6A, top). The mobilities of the monomeric and dimeric FGFR3 are indicated.

[3] = molecular target: T2, FGFR3 (Homo sapiens, UniProt P22607, S249C); assay: Western blot of FGFR3 receptor degradation in UMUC14 cells; assay type: cell-based; details: 33 nM, 16 hrs
T2 construct: UMUC14 cells, which endogenously express the FGFR3 S249C mutation; endogenous in cells; host or cells: UMUC14 (Sigma-Aldrich)
T2 sequence (P22607 23-808 isoform P22607-2 S249C limits assumed): as above
Description: For receptor degradation assessments, cells were treated with 33 nM of a designated antibody for 16 hours. Cells were then washed with pre-chilled PBS and collected in lysis buffer containing protease inhibitors (Cell Signaling Technology). Equal amounts of cell lysate were loaded on either reducing or non-reducing SDS-PAGE for protein separation. PVDF membranes with transferred proteins were blocked in tris-buffered saline (TBS) containing 5% nonfat dry milk and 0.5% Tween 20 and incubated overnight with anti-FGFR3 primary antibody (Santa Cruz). Membranes were washed three times with TBST, incubated with HRP-conjugated goat anti-rabbit secondary antibody (Seracare), and developed with SuperSignal West chemiluminescent substrate (Thermo Scientific). Images were captured with a C300 imager (Azure Biosystems).
To assess the effect of antibody on receptor degradation, UMUC14 cells were treated with indicated antibodies at 33 nM for 16 hrs. Total FGFR3 receptor levels were analyzed by western blot.

[4] = molecular target: T3, hFGFR3c (mmh) (Homo sapiens, UniProt P22607); assay: Biacore binding to human FGFR3c
T3 construct: biotinylated human or mouse FGFR3b-ecto.mmH, human FGFR3c-ecto.mmH; mmh (own knowledge: myc-myc-hexahistidine) (C)
T3 sequence (P22607 23-375 limits assumed): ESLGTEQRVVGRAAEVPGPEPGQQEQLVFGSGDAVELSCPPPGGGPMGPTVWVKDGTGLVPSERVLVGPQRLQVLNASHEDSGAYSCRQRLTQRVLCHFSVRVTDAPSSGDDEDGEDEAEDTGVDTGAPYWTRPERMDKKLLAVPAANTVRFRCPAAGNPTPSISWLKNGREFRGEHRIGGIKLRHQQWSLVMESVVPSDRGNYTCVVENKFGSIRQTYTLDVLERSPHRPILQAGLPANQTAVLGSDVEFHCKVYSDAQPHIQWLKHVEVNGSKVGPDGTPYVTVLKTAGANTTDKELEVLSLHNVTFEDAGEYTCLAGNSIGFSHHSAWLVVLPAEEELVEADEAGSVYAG
Description: Affinity and mechanism of action of binding of anti-FGFR3 antibodies to FGFR3 isoforms were determined by Biacore analysis. In brief, in-house generated monoclonal anti-human Fc antibody was immobilized on the surface of a CM-5 sensor chip. Different concentrations of FGFR3 antibodies were injected at 50 μL/min for 4 min and the assay was performed at 25° C. The mAb binding response was monitored and, for low affinity receptors, steady-state binding equilibrium was calculated. Kinetic association (ka) and dissociation (kd) rate constants were determined by processing and fitting the data to a 1:1 binding model using Scrubber 2.0 curve fitting software. Binding dissociation equilibrium constants (KD) and dissociative half-lives (t1/2) were calculated from the kinetic rate constants using the formula: KD (M)=kd/ka; and t1/2 (min)=(ln2/(60*kd). Some KD values were derived using the steady state equilibrium dissociation constant; When no KD values could be derived, it was marked as NB (no binding observed) or IC (inconclusive affinity determination due to low specific RU signal).

[5] = tested on: UMUC14 bladder cancer cells (FGFR3 S249C); assay: UMUC14 spheroid proliferation assay (CellTiter-Glo 3D); assay type: cell-based, human
Description: Two human bladder cancer cell lines, UMUC14 (Sigma-Aldrich) and RT4 (ATCC), which express an S249C mutation of FGFR3 or express TACC3-FGFR3 fusion mutation, respectively, were maintained in culture according to the suppliers' recommendations.
7500 UMUC14 or 5000 RT4 bladder cancer cells were seeded in U-bottom low attachment 96-well spheroid plate (Corning) in culture medium (MEM medium with 10% FBS, 1% non-essential amino acids, Pen/Strep). Cells were cultured for 24-48 hours at 37° C. 5% CO2 to allow tumor spheroid formation. Tumor spheroids were treated with antibodies at concentrations ranging from 100 nM to 15.2 pM with 1:3 serial dilution as indicated in the figures. Cells were cultured for 5-6 days, and then subjected to CellTiter-Glo 3D viability assays (Promega) following the manufacturer's protocol. Luminescence signal was read on PE Envision plate reader. Cell proliferation was expressed as percentages of untreated controls. Data were analyzed using GraphPad Prism software using three parameter nonlinear curve fit.

[6] = tested on: FGFR3; assay: Ligand blocking activity of parental anti-FGFR3 antibodies (Table 1); assay type: binding

B1: mAb063: parental anti-FGFR3 antibody; anchor or additional arm; parent of BiP063N2 (antibody)
heavy: QVQLQESGPGLVKPSETLSLTCTVSGDSINSYFWSWIRQLPGKELEWIGHIYSSGSTRYNPSLQSRVTISIDTSKNQFSLKLSSVTAADTAVYYCARGASAVDYWGQGTLVTVSSASTKGPSVFPLAPCSRSTSESTAALGCLVKDYFPEPVTVSWNSGALTSGVHTFPAVLQSSGLYSLSSVVTVPSSSLGTKTYTCNVDHKPSNTKVDKRV[human IgG4 Fc with S228P (EU numbers) cut from this listing]
light: EIVLTQSPGTLSLSPGERATLSCRTSQSISSGYLAWYQQKPGQAPRLLIYGASRRATGIPDRFSGSGSGTDFTLTISRLEPEDFVVYYCQQYGSSPYTFGQGTKLEIKRTVAAPSVFIFPPSDEQLKSGTASVVCLLNNFYPREAKVQWKVDNALQSGNSQESVTEQDSKDSTYSLSSTLTLSKADYEKHKVYACEVTHQGLSSPVTKSFNRGEC
effect on LU-0813 tumor growth [1]: strongly inhibited tumor growth
effect on FGFR3 S249C receptor dimerization [2]: potently inhibited receptor dimer formation
effect on FGFR3 receptor degradation [3]: did not induce receptor degradation
binding to monomeric human FGFR3c (in words) [4]: not detected
antiproliferative activity in UMUC14 spheroid proliferation assay ([5]; 5 to 6 days treatment): potent inhibitory activity
loss of activity on UMUC14 cell proliferation ([5]; IgG1 backbone): complete loss of activity
loss of activity on UMUC14 cell proliferation ([5]; IgG4s backbone): partial
Ligand Blocking Activity (percent value of the cell) [6]: 95%
IC50 ([6]; cell prints value/%, unit inferred, NB not defined for this column, read-out: Ligand Blocking Activity (first value of the cell)): 2 nM
